Some of the results follow.
Tested on: T1, C. trachomatis L2/434/Bu expressing GFP (CTL2-GFP)
T1 construct: L2/434/Bu GFP intracellular growth in HeLa cells
Parameters: species or system HeLa; C. trachomatis total inclusion area by high-content imaging, normalised to DMSO
Settings: total inclusion area; 28.5 h, 10 µM; inhibitor
Method in brief: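 After bulk GFP and resorufin fluorescence reads, cells were fixed, stained with Hoechst and imaged by high-content microscopy. Inclusion area and number (GFP) stood in for chlamydial growth, nuclei count (Hoechst) for host cell viability. MICs were derived as for the bulk readout.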

SMILES	% of control remaining
Cn1c(=O)oc2ccc(C(=O)N3CCn4nc(CO)cc4C3)cc21 [CBK306821]	87.5099
COc1ccc(NC(=O)CC(CN2CCN(c3ccc(Cl)cc3)CC2)C(=O)O)cc1 (stereo not drawn) [CBK286831]	113.97
COc1ccc(-c2nn(CCC(=O)O)cc2/C=C2\SC(=S)NC2=O)cc1OC [CBK265318]	95.1396
S=c1[nH]cnc2c1[nH]c1ccc(Br)cc12 [CBK288487]	58.9428
COc1cc(NC(=O)c2ccc(-c3cc4ccccc4oc3=O)cc2)ccc1NC(=O)C(C)C [CBK268601]	79.1314
CC1CCCN(C(=O)CCn2c(-c3ccccn3)cc3cccnc32)C1 (stereo not drawn) [CBK282154]	88.9637
O=C(Nc1ncc(Cc2ccc(F)cc2)s1)c1csc2c1CCCC2 [CBK300489]	30.176
CCC(CN1CCCC1)NC(=O)Cc1c(C)[nH]c2ccc(F)cc12 (stereo not drawn) [CBK282751]	113.52
COc1cccc(COc2cnc(-c3ccccc3)c(N)n2)c1OC [CBK145066]	95.3317
Cc1c(Cl)cccc1CNC(=O)CC1SC(NCC2CCCCC2)=NC1=O (stereo not drawn) [CBK067017]	34.662
Nc1c(C(=O)O)nnn1Cc1ccccc1 [CBK263796]	121.342
COc1ccc(/C=N/NC(=O)CCn2c3ccccc3c3ccccc32)cc1O [CBK262343]	6.621
COc1ccc(-c2csc(NS(=O)(=O)c3c(C)cc(Cl)cc3Cl)n2)cc1 [CBK000814]	95.9387
Cc1cccc(CN(CCCN(C)C)Cc2ccc(C)o2)n1 [CBK283187]	95.785
CN(C)CCCNC(=O)c1cccc(S(=O)(=O)N2CCCCC2)c1 [CBK304314C]	107.482
C[C@H](c1ccccc1)n1c(=O)[nH]c2ncc(-c3ccc(C(N)=O)cc3)nc21 [CBK064377]	79.5471
CC1(C)O[C@@H]2O[C@@H](C(O)CNC(=O)c3ccccc3)[C@@H](NC(=O)c3ccccc3)[C@@H]2O1 (stereo partly drawn) [CBK008727]	74.1521
COc1nccnc1OC1CCN(CCc2ccc3ccccc3c2)CC1 [CBK084264]	98.9224
Cc1cc(C)c(-n2nnnc2SCc2ccc(F)cc2)c(C)c1 [CBK100994]	73.6868
CCOC(=O)[C@H]1CC[C@]2(CC1)CNC(=O)c1ccccc1O2 [CBK284893]	100.222
CCc1c(C)sc2ncn(C3CCNCC3)c(=O)c12 [CBK282972]	107.625
COc1ccc(OC)c(NC(=O)Cn2cc(C(C)=O)c3ccccc32)c1 [CBK268661]	105.246
Cc1noc(C)c1S(=O)(=O)Nc1nnn[nH]1 [CBK062378]	87.787
CN(C)CCN(C)C(=O)c1cc(Br)cnc1N1CCN(C(=O)c2ccco2)CC1 [CBK076514]	70.1986
CC(C)CC(=O)Nc1ccc2nc(SCC(=O)O)sc2c1 [CBK299801]	92.2497
O=c1[nH]cc(CN2CCCN(S(=O)(=O)c3ccc(C(F)(F)F)cc3Cl)CC2)c(=O)[nH]1 [CBK062975]	64.9518

SMILES	% of control remaining
CN1CCOc2ccccc2C(=O)NC/C=C/CC2(CCCN(Cc3cc[nH]n3)C2)C1=O (stereo not drawn) [CBK292175]	99.4198
COc1ccccc1NS(=O)(=O)c1ccc(N2CCN3CCCC3C2)c(N)c1 (stereo not drawn) [CBK001266]	87.9884
Cc1ccc(NC(=O)c2ccc3nccnc3c2)c(C)n1 [CBK200219]	83.7012
CN(C)c1ccc(/C=N/NC(=O)CCn2c3ccccc3c3cc(I)ccc32)cc1 [CBK262902]	111.05
CC(NS(=O)(=O)c1ccc(F)cc1)C(=O)Nc1ccc(C(N)=O)cc1 (stereo not drawn) [CBK267658]	69.5971
CC1(C)CC(N(Cc2ccncc2)Cc2ccoc2)CC(C)(C)N1 [CBK283269]	83.4958
Cc1cc(COC(=O)NCc2ccncc2)cc(C)n1 [CBK200136]	89.8148
CCOC(=O)C(CNC(=O)CNC(=O)c1ccoc1)Cc1ccccc1 (stereo not drawn) [CBK305971]	37.4443
CCCCC1=NN2C(=N)/C(=C/c3cn(Cc4ccc([N+](=O)[O-])cc4)c4ccccc34)C(=O)N=C2S1 [CBK264320]	114.966
Cc1cc(CC(=O)N2CCN(CCNC(=O)C3CCCC3)CC2)no1 [CBK306376]	84.9755
Cc1ccc(S(=O)(=O)NCC2CCC(C(=O)Oc3ccc4ccc(=O)oc4c3)CC2)cc1 (stereo not drawn) [CBK093519]	100.51
CCC(=O)N1CCCc2cc(C(O)CN3CCC(C)CC3)ccc21 (stereo not drawn) [CBK282144]	101.873
Nc1cc2c(ncn2[C@@H]2C[C@@H](O)[C@@H](CO)O2)c(=O)[nH]1 [CBK201196]	113.274
CN1CCN(C(=O)CC[C@@H]2CNC(=O)[C@@H]3C[C@H](NC(=O)c4ccccc4)CN23)CC1 [CBK289014]	110.669
O=C(Cc1c[nH]c2ccccc12)N1CCC(F)CC1 [CBK200274]	76.3066
N#Cc1cc(F)cc(F)c1NC(=O)c1cccs1 [CBK066832]	97.5161
CNC(=O)c1ccc(CN(Cc2noc(C(C)C)n2)C2CC2)cc1 [CBK304084]	92.6582
O=C(N[C@H]1CCN2C(=O)c3cc(-c4ccccc4)ccc3NC(=O)[C@H]12)c1cccs1 [CBK289350]	113.992
O=C(Nc1ccc(Br)cc1)c1c(O)n2c3c(cccc3c1=O)CCC2 [CBK291207]	95.3931
CCOC(=O)c1csc(C2CCCN2C(=O)c2ccsc2)n1 (stereo not drawn) [CBK304125]	59.8078
Cc1cc(C)n2nc(C(=O)N/N=C/c3ccc(O)cc3)nc2n1 [CBK261765]	101.396
COc1ccc(S(=O)(=O)NC[C@H]2C[C@@H]3CC[N@]2C[C@@H]3CN2CCOCC2)cc1 [CBK288761]	91.8616
CN(C)c1cccc(C2CCCN2c2nc3c(cnn3C)c(=O)[nH]2)c1 (stereo not drawn) [CBK305220]	51.0674
CC(C(=O)Nc1ccc(F)c(F)c1)n1cc([N+](=O)[O-])cn1 (stereo not drawn) [CBK268771]	80.9868
O=C(O)CCn1oc(=O)c2ccccc21 [CBK020340]	3.94
c1cncc(-c2nccnc2NCC2CC2)c1 [CBK037310]	84.4869

SMILES	% of control remaining
CCCc1ccc(S(=O)(=O)Nc2cccc(C(=O)Nc3ccc(F)cc3)c2)cc1 [CBK038978]	78.2216
Cc1nn(C)c(N2CCNCC2)c1NC(=O)c1cc(-c2ccccc2)oc1C [CBK050356T]	81.7112
CCOc1ccccc1-c1nnc(SCC(=O)NC2CCCCC2)o1 [CBK268728]	63.8402
COc1ncc(-c2nccnc2OCCOc2ccccc2)c(OC)n1 [CBK106752]	106.719
Cc1cn(CC(=O)N2CCC(Cn3cncn3)(C3CCCCC3)CC2)c(=O)[nH]c1=O [CBK136800]	91.5814
O=C(O)c1cccc(NC(=O)c2cccc(S(=O)(=O)Nc3ccc(Cl)cc3)c2)c1 [CBK261261]	95.7875
CN1CCN(NC(=O)c2cc(C(=O)c3ccc(Cl)cc3Cl)c[nH]2)CC1 [CBK107420]	89.987
CN/C(=N\C1CCCCC1)N1CCOCC1 [CBK023800G]	88.6359
COc1ccc(-c2csc(/C(C#N)=C/Nc3ccc(S(=O)(=O)Nc4nccs4)cc3)n2)cc1 [CBK262374]	24.0134
Cc1onc(-c2ccccc2)c1C(=O)N1CCC1 [CBK160450]	74.9605
CCOc1ccc(CCC(=O)N2CCCc3c(cnn3C)C2)cc1 [CBK285276]	100.17
COc1cc(Nc2cc(-c3cccc(N)c3)ncn2)cc(OC)c1OC [CBK037713]	103.388
COc1ccc(CCN2CCC(Oc3nccnc3OCc3cccnc3)CC2)cc1OC [CBK083179T]	69.6851
Cc1cc(Cl)ccc1CNS(=O)(=O)c1cccs1 [CBK044714]	81.7091
O=C(Nc1ccc([C@@H](O)[C@H]2COCC(=O)N2Cc2cccnc2)cc1)c1ccccc1 [CBK289319]	119.197
Cc1ccnc(NS(=O)(=O)c2ccc(NS(=O)(=O)c3ccc(F)cc3)cc2)n1 [CBK051024]	107.798
O=C(O)c1ccccc1-c1nc(-c2ccccc2F)no1 [CBK268022]	100.704
Cc1ccnn1CCC(=O)N1CCCC1c1nc2ccccc2[nH]1 (stereo not drawn) [CBK285178]	86.2462
O=C(C(Cc1ccccc1)c1ccccc1)N1CCC2(CCN(CCCCOc3ccccc3)C2)C1 (stereo not drawn) [CBK160643]	62.8052
N#C/C(=C\c1ccc(N2CCN(c3ccc(F)cc3)CC2)c([N+](=O)[O-])c1)c1nn(-c2ccccc2)c(N)c1C#N [CBK267927]	96.4735
CC(C)c1ccccc1OCC(=O)OCCN1C(=O)c2ccccc2C1=O [CBK264841]	111.386
CCN(C(C)=O)c1nc(CN2CCOC(c3ccc(F)cc3)C2)cs1 (stereo not drawn) [CBK306213]	66.3636
C=CCN1C(=O)CC2(C1=O)C(=O)N(Cc1nnc(-c3ccc(C)cc3)o1)c1ccc(Cl)cc12 (stereo not drawn) [CBK075434]	113.064
CCN(CC)C(=O)CN1CCCN(c2cc(Oc3ccc(OC)c(OC)c3)ncn2)CC1 [CBK083359T]	104.634
CCOC(=O)c1[nH]c2ccccc2c1NC(C)=O [CBK086755]	95.9937
CCN(CC)CCNC(=O)/C(=N\O)c1ccccc1 [CBK288408]	72.8679
